# Source: the supplement of paper PMC11417369
# ± gives the standard deviation of the averaged measurements. Some of the results follow.
# Test system: PfAP2-I AP2 domain 3 (GST-tagged)
# Assay: gcPBM binding intensity (ln(normalized median fluorescence intensity)); higher = stronger DNA binding
# Summary of the method: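 Plasmodium falciparum DNA-binding domains carrying a GST tag were expressed in E. coli and applied for 1 h, at about 25 μg on average, to an Agilent 4 × 180k array. The array held primer-extended double-stranded 36-bp intergenic genomic probes together with negative controls, and binding took place in 1× PBS with 1% milk, 0.2 mg/ml BSA, 0.5% salmon testes DNA and 0.03% Triton X-100. An Alexa488 anti-GST antibody detected bound protein, and the array was scanned at 488 nm. Binding intensity is taken as the highest Masliner-normalised natural-log median intensity across replicate spots of either probe orientation.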
row,Sequence,gcPBM binding intensity (ln)
1,TAACTTTGAAAAGATGGTACACAATAATATATATAT [XGTACX_site8667],8.9 ± 0.2
2,TAATAATAAAAATAAACACACATATAGATGTATATA [CACACA_site7360],7.44 ± 0.48
3,ATTTTGTTCGAAAGGTGTACATATACAAAAATTATG [XGTACX_site957],8.3 ± 0.47
4,ATTGCTTTTCTTTTTGCACACTTATGCATATATATA [CACACA_site2584],10.44 ± 0.064
5,CACTTTTCATATATGACACACAAAAAATTAATAAAA [CACACA_site3639],8.07 ± 0.32
6,AGCACACCCACAAAAACACACACAAAGGTGTTCTTA [CACACA_site8355],7.7 ± 0.78
7,TCATTATTATTCCTCACACATATATATATATATATT [CACACA_site4375],8.02 ± 0.48
8,GCATGTATAATGGTAGTGCATATAATAATATAATAA [GTGCAC_site9548],10.3 ± 0.33
9,ATTAACACTGAAAAATGTACATATATAAATATAAGC [XGTACX_site8222],7.9 ± 0.68
10,AATATTAAAAACAAAACACACAAAAAAAAATAAACT [CACACA_site6470],7.98 ± 0.62
11,AACGATATCTGTACTACACACATTATGTCATCCTAT [CACACA_site5374],8.27 ± 0.47
12,TAAAATAATACAAAATGTACAAAATTTACAAAATGT [XGTACX_site3541],7.45 ± 0.6
13,AATATAGAACAATGTTGTACATATAATAATCTTATA [XGTACX_site4671],7.67 ± 0.11
14,ATGTAAATTAAACATGGTACACATTATACAAAATTA [XGTACX_site5675],7.75 ± 0.45
15,TTTATGGGTATGTTTACACACATAAAAAAATATATG [CACACA_site5646],7.68 ± 0.42
16,ATATATATGAAAATATGTACATATATATATATATAA [XGTACX_site7550],7.93 ± 0.39
17,AAAGTTATAATACGTACACACCTTATCTTTTTGGCT [CACACA_site6267],8.05 ± 0.51
18,TTATAAAATAATTAATGTACGTTTATGTGTATCGAA [XGTACX_site6117],8.09 ± 0.28
19,ACTGAAAAAAGAAATACACACATTCTGGATCATATA [CACACA_site3860],7.47 ± 0.52
20,TATTATCTCTTATGAACACACATTTTTATTTTCAAA [CACACA_site3353],7.89 ± 0.28
21,ATATCGTATATGAGTGGTACTAATATGTAAAAAAAA [XGTACX_site7830],7.84 ± 0.57
22,AATGTTAAGGAGGGGAGTACATAAAATTCTCTCTCC [XGTACX_site1990],8 ± 0.28
23,AAAAGCTATAAAAATCGGTAATTTATAACAGGAATT [CACACA_negctrl_site469],7.62 ± 0.77

row,Sequence,gcPBM binding intensity (ln)
1,ATTATGTACTATTATACACACGTTTAATTGTAAATT [CACACA_site4278],7.99 ± 0.27
2,ATAATAATAAAGTGAACACACACATATAATATATAT [CACACA_site9378],7.72 ± 0.65
3,ATTATACACGCGCGCACACACAACAAAAAAAAAAAA [CACACA_site7630],8.55 ± 0.18
4,TAAATAAACAAATTAACACACAGAATTTTTTTTTTC [CACACA_site1674],7.49 ± 0.57
5,TGGTAACAGCATAGAAAATGGACAAACGAAATATAA [GTGCAC_negctrl_site537],8.12 ± 0.62
6,TATTTAAAAATAAAATGTACATATTATTATGCATTA [XGTACX_site1303],7.9 ± 0.2
7,TGATTCTAACTTATGGTGCAACATTATGGACACCGT,10.3 ± 0.35
8,TTACATATTTATGATTGTACACATTTATAAACAATA [XGTACX_site2190],7.82 ± 0.28
9,TTAATATTGTTATAGCGTACAAATAAACATATTAAA [XGTACX_site8153],7.89 ± 0.2
10,TTCATATAATTATATACATGCATAAATTCTAAGTAA [TGCATGCA_site622],8.02 ± 0.38
11,TTCATATATTATTATGCATGTTCATAAATTATCTAA [TGCATGCA_site896],7.88 ± 0.58
12,ATTTTATAAACAAATGAACACACAAACATATATATA [CACACA_site9036],8.02 ± 0.61
13,TACATACATAAACACACACACACATATATATATATA [CACACA_site8953],9.4 ± 0.42
14,CATTAATGACATGATTGTACATAAGCTTTTTTACAT [XGTACX_site1888],7.75 ± 0.61
15,ACCCATTCAAATTTCGCACACACATACAAAAAAAAA [CACACA_site3094],8.79 ± 0.12
16,ATCAAAAGAAAACACACACACATACATATATATATA [CACACA_site3795],9.15 ± 0.16
17,ATTTGTGTATATTAGAGTACATAAAATTAGAGGAAC [XGTACX_site1654],8.43 ± 0.42
18,ATATTGTAAGTAAAATGTAATAAATATAATAAAATA [CACACA_negctrl_site697],7.89 ± 0.45
19,TTAGTATATACATTTGCACACATTATTTTTTAACAT [CACACA_site2618],9.24 ± 0.4
20,AAAAGGAAAATACTAGCACACAATATATAATAAACA [CACACA_site285],7.99 ± 0.49
21,TCCTTGCATTTTAAAACACACAAAAATTAATTGTTA [CACACA_site7152],8.57 ± 0.53
22,TTTCTAATTATTTCCCTTCAAATATATTAATATCGT [CACACA_negctrl_site429],7.63 ± 0.59
